The text below walks through data of ChEMBL document CHEMBL4888484, “Replenishing the malaria drug discovery pipeline: Screening and hit evaluation of the MMV Hit Generation Library 1 (HGL1) against asexual blood stage Plasmodium falciparum ,using a nano luciferase reporter read-out” (2022).

SMILES strings stand for the structures. In all, about 150,000 compounds went through this assay and about 540 (0.36%) showed an effect of 50% or more. The list shows a part of the results.

The test system of this test is Plasmodium falciparum. In words: Primary screen in NF54 nanoGlo assay, in single point, at 2uM, 72h; a lower Z score goes with more inhibition. Type of test: functional, Erythrocyte. Conditions: timepoint 72 hour.
For orientation: % Inhibition means the relative decrease from the control value, in per cent. Consider `COc1cccc([C@H]2CC(=O)Nc3n[nH]cc32)c1OCCc1ccccc1`, for which the “% Inhibition” value was -1% and the Z score is 0.1.

Take `C[C@H](NCc1cc2ccccc2c(=O)[nH]1)c1nc(C2CCCC2)no1`: the “% Inhibition” value stood at 28% and the Z score is -3.16.

With `CC(=O)N1CCC(NC(=O)C(O)c2cc(Cl)cc(Cl)c2)C1` (centres undefined), the “% Inhibition” value was -7% and the Z score stood at 1.09.

As to `CCc1ccc(CS(=O)(=O)NC(=O)C2(COC)CCC2)cc1`, the “% Inhibition” value was -15% and the Z score is on record as 1.68.

Consider `CC(C)c1cccc2c1CCN(CC(=O)N1CCC(C(=O)N3CCCC3)CC1)C2`, for which the “% Inhibition” value is given as -12% and the Z score is listed as 1.18.

`COC[C@@H]1[C@H](NC(=O)c2ccccc2-c2ccccc2)[C@H]2CCO[C@H]21`: the “% Inhibition” value is listed as -22% and the Z score worked out at 2.23.

Consider `C[C@H]1CCCCN1S(=O)(=O)c1ccc2c(cnc(=O)n2CC(=O)Nc2ccccc2)c1`, for which the “% Inhibition” value was 2% and the Z score was -0.32.

Consider `NC(=O)c1c(NCC(=O)NCc2ccc(F)cc2)sc2c1CCCC2`, for which the “% Inhibition” value was -33% and the Z score is 3.32.

On to `O=C(NC(c1nnn(CC2CCCO2)n1)C1CC1)c1ccccc1` (centres undefined), for which the “% Inhibition” value is -12% and the Z score turned out to be 2.19.

Turning to `O=C(c1cccc(F)c1)N1CCN(CC2CC3C=CC2C3)CC1` (centres undefined), the “% Inhibition” value was -7% and the Z score is 0.97.

In the case of `FC(F)(F)c1ccc(N2CCC(n3ccnn3)CC2)nn1`, the “% Inhibition” value is on record as 0% and the Z score is -0.04.

Regarding `Cc1ccc(C(=O)NCc2ccc(F)c(Cn3ccnc3)c2)c(=O)[nH]1`, the “% Inhibition” value is reported as -1% and the Z score is on record as 0.1.

For `CC(C)C(=O)N1CCC([C@@H]2CN(Cc3ccsc3)C[C@H]2CO)CC1`, the “% Inhibition” value was determined as 0% and the Z score was determined as 0.04.

Take `Cc1cc(Cl)ccc1-n1ncc2c(N3CCCC3)ncnc21`: the “% Inhibition” value was -8% and the Z score was determined as 0.92.

As for `Cc1nn(C)cc1-c1csc(CC2CC2)n1`, the “% Inhibition” value is -3% and the Z score stood at 0.3.

`CCC(CC)C(=O)N(CC)c1ccccc1`: the “% Inhibition” value is on record as -13% and the Z score was found to be 1.49.

Regarding `CC1CC2(C)Oc3ccccc3C3OCC1(COC(=O)Nc1ccccc1)[C@@H](C)C32` (some centres undefined), the “% Inhibition” value is recorded as -14% and the Z score is 1.84.

For the compound `O=C1C2C3C=CC([C@@H]2C(=O)N1Cc1ccccc1)C31CC1` (some centres undefined), the “% Inhibition” value is reported as -6% and the Z score is on record as 0.81.

In the case of `O=C(CCc1cncnc1)NC[C@H](N1CCOCC1)C(F)(F)F`, the “% Inhibition” value is recorded as -7% and the Z score was determined as 1.1.

`Cc1c(S(=O)(=O)N2CCN(CC(F)(F)F)C[C@H](C)C2)cnn1C`: the “% Inhibition” value stood at 6% and the Z score was -0.85.

With `COc1ccccc1[C@H](CNC(=O)c1cccc(S(=O)(=O)N2CCCc3ccccc32)c1)N(C)C`, the “% Inhibition” value amounted to 6% and the Z score is -1.18.

With `Cc1cccc(C(=O)Nc2ccccc2C(=O)OCc2c(C)noc2C)c1`, the “% Inhibition” value was 6% and the Z score is given as -0.82.

As to `CN1CCN(c2ncnc(Oc3ccc(F)cc3F)c2N)CC1`, the “% Inhibition” value is recorded as -4% and the Z score worked out at 0.41.

For the compound `C=CCNCCOc1c(C)cc(C)cc1CC=C`, the “% Inhibition” value is recorded as -4% and the Z score is listed as 0.55.

Regarding `CNC(=O)[C@H]1CCN(C(=O)c2cncc(Cl)c2)C1`, the “% Inhibition” value worked out at 0% and the Z score was determined as 0.01.

For the compound `Cc1cc(C)cc(NC(=O)COc2cccc(-c3nc(C)no3)c2)c1`, the “% Inhibition” value was -7% and the Z score is given as 1.41.

Take `CN1CCC(CNC(=O)c2ccncc2Cl)C1c1cccs1` (centres undefined): the “% Inhibition” value turned out to be 8% and the Z score is -1.25.

Take `CN(C)C(=O)c1cnc(NC[C@H]2CCCn3ccnc32)c(Cl)c1`: the “% Inhibition” value is -3% and the Z score came out at 0.42.

As for `CCn1cc(CN2CC[C@@]3(CCCN(CC4CC4)C3=O)C2)cc1C#N`, the “% Inhibition” value is listed as -26% and the Z score is given as 2.3.

On to `CCOc1cc2c3c(c1)-c1c(ssc1=S)C(C)(C)N3C(=O)C2=O`, for which the “% Inhibition” value was -1% and the Z score came out at 0.18.

In the case of `Cc1ccc(-c2nc(CN3CCC[C@H]3c3ccsc3)co2)c(C)c1`, the “% Inhibition” value is -13% and the Z score is listed as 1.19.

As for `O=S1(=O)CCN(c2ccc3ccc(Cl)c(Cl)c3n2)CC1`, the “% Inhibition” value was -6% and the Z score amounted to 0.76.

Turning to `COCC[C@]1(NS(=O)(=O)c2ccccc2)CCN(Cc2c(C)noc2C)C1`, the “% Inhibition” value is listed as -5% and the Z score is given as 0.63.

With `O=C(Cn1c(=O)ncc2c1cnn2[C@H]1CCS(=O)(=O)C1)c1ccc(Cl)cc1Cl`, the “% Inhibition” value is given as -17% and the Z score is given as 2.24.

`CC1(S(=O)(=O)N2CCC[C@H](c3n[nH]c(C4CC4)n3)C2)CC1`: the “% Inhibition” value was determined as 1% and the Z score is -0.12.

For the compound `CC1CCCC1OCC(O)CN1CCCCC1` (centres undefined), the “% Inhibition” value is listed as -15% and the Z score was determined as 1.72.

Turning to `CC[C@@H](C(=O)N1CCN(c2ccc(F)cc2)CC1)N1CCN(Cc2ccc(F)cc2)C(=O)C1=O`, the “% Inhibition” value is listed as -6% and the Z score came to 1.02.

Consider `O=C1CC[C@@]2(CCN(C(=O)C3(c4ccccc4)CCCC3)C2)N1`, for which the “% Inhibition” value is -8% and the Z score was found to be 1.11.

Take `CC(=O)N1CCN(C[C@H](O)COC2CCCCC2)CC1`: the “% Inhibition” value is on record as -16% and the Z score was 2.14.

`Cc1cc(N2CCN(c3ccccc3Cl)CC2)c2nncn2n1`: the “% Inhibition” value was -5% and the Z score is 0.53.

For `CCOC1CC(N(C)C(=O)c2ccc(NC(C)=O)cc2)C1(C)C` (centres undefined), the “% Inhibition” value was -10% and the Z score was 0.98.

In the case of `Cc1ccc(-n2c(=O)n(CC(=O)NCCN3CCOCC3)c3cccnc32)cc1`, the “% Inhibition” value was -3% and the Z score turned out to be 0.33.
